No constants are given. Whether binding was seen depends on the method and setting. Binding seen in cells or lysates may run through a third protein. Some binding calls cover weakened binding; strength is not graded here. For some of these results: Sequences can lack the tags named with a protein.
How the values were obtained:
[1] = target: T1, Flag-Rad21 WT (full length) in pFlag CMV2 (human) (UniProt O60216); assay: co-IP; 293 T cells transfected with pFlag CMV2 Rad21 constructs; IP of Flag-Rad21 (Flag mAb agarose beads) from whole cell lysate, blots of endogenous cohesin subunits and associated proteins
T1 sequence: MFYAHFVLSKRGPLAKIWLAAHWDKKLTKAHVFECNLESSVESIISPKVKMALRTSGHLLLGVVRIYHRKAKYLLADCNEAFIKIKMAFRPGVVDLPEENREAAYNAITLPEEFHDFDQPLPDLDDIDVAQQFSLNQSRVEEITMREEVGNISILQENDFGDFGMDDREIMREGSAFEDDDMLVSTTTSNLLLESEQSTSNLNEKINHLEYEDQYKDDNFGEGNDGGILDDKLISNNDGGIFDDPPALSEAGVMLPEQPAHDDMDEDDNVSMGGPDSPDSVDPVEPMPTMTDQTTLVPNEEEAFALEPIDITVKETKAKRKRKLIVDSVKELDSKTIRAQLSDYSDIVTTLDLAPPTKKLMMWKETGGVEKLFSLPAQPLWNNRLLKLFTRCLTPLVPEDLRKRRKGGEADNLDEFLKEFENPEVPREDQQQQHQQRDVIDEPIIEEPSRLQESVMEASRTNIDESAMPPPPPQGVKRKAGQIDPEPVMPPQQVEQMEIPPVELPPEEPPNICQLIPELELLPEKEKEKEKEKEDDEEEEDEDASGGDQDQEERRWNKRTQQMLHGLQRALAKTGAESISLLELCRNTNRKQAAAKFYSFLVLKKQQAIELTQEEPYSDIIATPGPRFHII

[2] = target: T2, N-terminal fragment (1–172 aa) of Rad21 (Rad21 NT), expressed in 293 T cells (human) (UniProt O60216); assay: co-IP; 293 T cells transfected with differently tagged (Flag, HA) Rad21 NT, MP or CT fragments; IP from cell lysates 40 h after transfection; blots of the other copy and of endogenous proteins
T2 sequence: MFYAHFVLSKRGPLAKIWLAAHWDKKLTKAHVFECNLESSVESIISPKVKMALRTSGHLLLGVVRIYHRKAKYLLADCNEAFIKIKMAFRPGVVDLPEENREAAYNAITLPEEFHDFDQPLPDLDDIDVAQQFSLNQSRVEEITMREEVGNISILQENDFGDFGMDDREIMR

[3] = target: T3, middle part (173–450 aa) of Rad21 (Rad21 MP), expressed in 293 T cells (human) (UniProt O60216); assay: as above
T3 sequence: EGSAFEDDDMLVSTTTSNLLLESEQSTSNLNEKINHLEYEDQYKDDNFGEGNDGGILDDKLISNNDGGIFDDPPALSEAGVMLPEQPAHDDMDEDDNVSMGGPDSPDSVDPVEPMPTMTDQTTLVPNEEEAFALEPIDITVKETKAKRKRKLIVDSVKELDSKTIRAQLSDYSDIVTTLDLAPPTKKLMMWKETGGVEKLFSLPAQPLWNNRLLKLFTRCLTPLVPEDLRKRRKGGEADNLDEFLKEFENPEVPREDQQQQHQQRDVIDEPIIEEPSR

B1: endogenous Pds5A (protein, UniProt Q29RF7 1-1337)
chain: MDFTAQPKPATALCGVVSADGKIAYPPGVKEITDKITTDEMIKRLKMVVKTFMDMDQDSEDEKQQYLPLALHLASEFFLRNPNKDVRLLVACCLADIFRIYAPEAPYTSHDKLKDIFLFITRQLKGLEDTKSPQFNRYFYLLENLAWVKSYNICFELEDCNEIFIQLFRTLFSVINNSHNKKVQMHMLDLMSSIIMEGDGVTQELLDSILINLIPAHKNLNKQSFDLAKVLLKRTVQTIEACIANFFNQVLVLGRSSVSDLSEHVFDLIQELFAIDPHLLLSVMPQLEFKLKSNDGEERLAVVRLLAKLFGSKDSDLATQNRPLWQCFLGRFNDIHVPVRLESVKFASHCLMNHPDLAKDLTEYLKVRSHDPEEAIRHDVIVTIITAAKRDLALVNDQLLGFVRERTLDKRWRVRKEAMMGLAQLYKKYCLHGEAGKEAAEKVSWIKDKLLHIYYQNSIDDKLLVEKIFAQYLVPHNLETEERMKCLYYLYASLDPNAVKALNEMWKCQNMLRSHVRELLDLHKQPTSEANCSAMFGKLMTIAKNLPDPGKAQDFVKKFNQVLGDDEKLRSQLELLISPTCSCKQADICVREIARKLANPKQPTNPFLEMVKFLLERIAPVHIDSEAISALVKLMNKSIEGTADDEEEGVSPDTAIRSGLELLKVLSFTHPTSFHSAETYESLLQCLRMEDDKVAEAAIQIFRNTGHKIETDLPQIRSTLIPILHQKAKRGTPHQAKQAVHCIHAIFTNKEVQLAQIFEPLSRSLNADVPEQLITPLVSLGHISMLAPDQFASPMKSVVANFIVKDLLMNDRSTGEKNGKLWSPDEEVSPEVLAKVQAIKLLVRWLLGMKNNQSKSANSTLRLLSAMLVSEGDLTEQKRISKSDMSRLRLAAGSAIMKLAQEPCYHEIITPEQFQLCALVINDECYQVRQIFAQKLHKALVKLLLPLEYMAIFALCAKDPVKERRAHARQCLLKNISIRREYIKQNPMATEKLLSLLPEYVVPYMIHLLAHDPDFTRSQDVDQLRDIKECLWFMLEVLMTKNENNSHAFMKKMAENIKLTRDAQSPDESKTNEKLYTVCDVALCVINSKSALCNADSPKDPVLPMKFFTQPEKDFCNDKSYISEETRVLLLTGKPKPAGVLGAVNKPLSATGRKPYVRSTGTETGSNINVNSELNPSTGNRSREQSSEAAETGVSENEENPVRIISVTPVKNIDPVKNKEINSDQATQGNISSDRGKKRTVTAAGAENIQQKTDEKVDESGPPAPSKPRRGRRPKSESQGNATKNDDLNKPINKGRKRAAVGQESPGGLEAGNAKAPKLQDLAKKAAPAERQIDLQR
[1]
  binding: binds weakly

B2: endogenous Pds5B (protein, UniProt Q9NTI5 1-1447)
chain: MAHSKTRTNDGKITYPPGVKEISDKISKEEMVRRLKMVVKTFMDMDQDSEEEKELYLNLALHLASDFFLKHPDKDVRLLVACCLADIFRIYAPEAPYTSPDKLKDIFMFITRQLKGLEDTKSPQFNRYFYLLENIAWVKSYNICFELEDSNEIFTQLYRTLFSVINNGHNQKVHMHMVDLMSSIICEGDTVSQELLDTVLVNLVPAHKNLNKQAYDLAKALLKRTAQAIEPYITNFFNQVLMLGKTSISDLSEHVFDLILELYNIDSHLLLSVLPQLEFKLKSNDNEERLQVVKLLAKMFGAKDSELASQNKPLWQCYLGRFNDIHVPIRLECVKFASHCLMNHPDLAKDLTEYLKVRSHDPEEAIRHDVIVSIVTAAKKDILLVNDHLLNFVRERTLDKRWRVRKEAMMGLAQIYKKYALQSAAGKDAAKQIAWIKDKLLHIYYQNSIDDRLLVERIFAQYMVPHNLETTERMKCLYYLYATLDLNAVKALNEMWKCQNLLRHQVKDLLDLIKQPKTDASVKAIFSKVMVITRNLPDPGKAQDFMKKFTQVLEDDEKIRKQLEVLVSPTCSCKQAEGCVREITKKLGNPKQPTNPFLEMIKFLLERIAPVHIDTESISALIKQVNKSIDGTADDEDEGVPTDQAIRAGLELLKVLSFTHPISFHSAETFESLLACLKMDDEKVAEAALQIFKNTGSKIEEDFPHIRSALLPVLHHKSKKGPPRQAKYAIHCIHAIFSSKETQFAQIFEPLHKSLDPSNLEHLITPLVTIGHIALLAPDQFAAPLKSLVATFIVKDLLMNDRLPGKKTTKLWVPDEEVSPETMVKIQAIKMMVRWLLGMKNNHSKSGTSTLRLLTTILHSDGDLTEQGKISKPDMSRLRLAAGSAIVKLAQEPCYHEIITLEQYQLCALAINDECYQVRQVFAQKLHKGLSRLRLPLEYMAICALCAKDPVKERRAHARQCLVKNINVRREYLKQHAAVSEKLLSLLPEYVVPYTIHLLAHDPDYVKVQDIEQLKDVKECLWFVLEILMAKNENNSHAFIRKMVENIKQTKDAQGPDDAKMNEKLYTVCDVAMNIIMSKSTTYSLESPKDPVLPARFFTQPDKNFSNTKNYLPPEMKSFFTPGKPKTTNVLGAVNKPLSSAGKQSQTKSSRMETVSNASSSSNPSSPGRIKGRLDSSEMDHSENEDYTMSSPLPGKKSDKRDDSDLVRSELEKPRGRKKTPVTEQEEKLGMDDLTKLVQEQKPKGSQRSRKRGHTASESDEQQWPEEKRLKEDILENEDEQNSPPKKGKRGRPPKPLGGGTPKEEPTMKTSKKGSKKKSGPPAPEEEEEEERQSGNTEQKSKSKQHRVSRRAQQRAESPESSAIESTQSTPQKGRGRPSKTPSPSQPKKNVRVGRSKQAATKENDSSEEVDVFQGSSPVDDIPQEETEEEEVSTVNVRRRSAKRERR
[1]
  binding: binds weakly

B3: N-terminal fragment (1–172 aa) of Rad21 (Rad21 NT), expressed in 293 T cells (domain or fragment, UniProt O60216 1-172)
chain: MFYAHFVLSKRGPLAKIWLAAHWDKKLTKAHVFECNLESSVESIISPKVKMALRTSGHLLLGVVRIYHRKAKYLLADCNEAFIKIKMAFRPGVVDLPEENREAAYNAITLPEEFHDFDQPLPDLDDIDVAQQFSLNQSRVEEITMREEVGNISILQENDFGDFGMDDREIMR
[2]
  binding: binds

B4: middle part (173–450 aa) of Rad21 (Rad21 MP), expressed in 293 T cells (domain or fragment, UniProt O60216 173-450)
chain: EGSAFEDDDMLVSTTTSNLLLESEQSTSNLNEKINHLEYEDQYKDDNFGEGNDGGILDDKLISNNDGGIFDDPPALSEAGVMLPEQPAHDDMDEDDNVSMGGPDSPDSVDPVEPMPTMTDQTTLVPNEEEAFALEPIDITVKETKAKRKRKLIVDSVKELDSKTIRAQLSDYSDIVTTLDLAPPTKKLMMWKETGGVEKLFSLPAQPLWNNRLLKLFTRCLTPLVPEDLRKRRKGGEADNLDEFLKEFENPEVPREDQQQQHQQRDVIDEPIIEEPSR
[3]
  binding: binds

From publication PMC3709894
